Test results reported in PubChem BioAssay AID504332 (National Center for Advancing Translational Sciences (NCATS), 2011).
The whole screen tested about 350,000 compounds, of which about 31,000 (8.9%) were called active. This list was built around the results that the source calls inconclusive (neither active nor inactive); the mix of calls is not that of the screen. Calls follow the shape of the dose curve; as a rule, active = well fitted inhibition curve with a large enough effect; inconclusive = small, poorly fitted or top-dose-only effect; inactive = no such curve, though single readings can be large or run the other way. Where the call is inconclusive, the potency comes from a doubtful curve fit.

Target: Histone-lysine N-methyltransferase EHMT2 (Homo sapiens) (UniProt Q96KQ7)
Experiment: qHTS Assay for Inhibitors of Histone Lysine Methyltransferase G9a; also: nearly all actives have a fitted effect of over 75% in size
Conditions: G9a H3K9 monomethylation, AlphaScreen, 2 h; activity, negative = inhibition: at 59 µM (top of the series) unless noted
Excerpt: Methylated lysines, on the N-terminal tails of histone proteins serve as epigenetic markers to recruit factors that can then modify local chromatin structure to lead to functional consequences. G9a and other members of the SUV39 family of the SET domain-containing superfamily of histone lysine methyltransferases (HMT) have been identified to specifically methylate Lys9 of histone H3 (H3K9). G9a catalyzes the mono- and di-methylation of H3K9 in mammalian euchromatic regions, where the resulting H3K9me2 is indicative of transcriptional repression. […] The inhibition of G9a will result in transcriptional activation and work synergistically with DNA methyltransferase and histone deacetylase inhibitors, to kill cancer cells. This qHTS assay for identification of G9a inhibitors is a chemiluminescence based AlphaScreen (PerkinElmer). Methylation of biotinylated-histone peptide is measured through specific antibody-based detection, in conjunction with streptavidin-coated donor and anti-IgG antibody-coated acceptor beads. The method is particularly well suited for detection of inhibitors acting by the desired histone peptide competitive mechanism and is applicable to testing other HMTs. Although AlphaScreen has significant advantages with its utility in a variety of epigenetic target assays, the primary screening data provided in this deposition should be used with caution due to the prevalence of screening artifacts. An AlphaScreen counterscreen is highly recommended to be run against any putative actives to eliminate non specific artifacts. Alternatively, one can use other AlphaScreen assays in PubChem to filter out promiscuous hits. Quinn et al. A chemiluminescence-based method for identification of histone lysine methyltransferase inhibitors. Mol Biosyst 6(5): 782-8. 2010. PMID: 20567762 [2] Baell,Holloway. New substructure filters for removal of pan assay interference compounds (PAINS) from screening libraries and for their exclusion in bioassays. J Med Chem. 53(7):2719-40. 2010. PMID: 20131845 NIH Molecular Libraries Probe Production Network [MLPCN] NIH Chemical Genomics Center [NCGC] Structural Genomics Consortium (SGC) NIH Grant: 5U54 MH084681-02
To each well of a 1,536w plate, 2ul of HMT enzyme (final 20nM) were added, using a nanoliter dispenser. The G9a- and GLP-inhibitor BIX-01294 (CID: 25150857) are used as an intraplate control, with a 16-point titration in duplicate. A Kalypsys pin-tool transferred 23nl of library compound solution in DMSO to each well. Following a 15 min incubation of enzyme with compounds at room temperature, 1ul mixture of b-H3K9 peptide substrate (final 500nM) and SAM cofactor (final 20uM) were added. Reactions were allowed to proceed at room temperature for 2 hours. Methylated b-H3K9 peptide product was detected with 0.5 ug/mL rabbit polyclonal anti-monomethyl histone H3K9 antibody (Abcam Inc., Cambridge, MA) and 20 ug/mL each streptavidin-coated donor and anti-rabbit IgG acceptor AlphaScreen beads. Antibody and beads were added in a 1ul dispense, for a final volume of 4ul, and plates were incubated, protected from the light, for 10 min at room temperature. Microplates were then read on an EnVision multilabel plate reader using the 1,536 plate HTS AlphaScreen aperture (excitation time 80 ms, measurement time 240 ms).
% is scaled to controls: 0 for no effect and ±100 for the full control effect; potency is read from the fitted curve at half-maximal effect; tags tell the direction and shape of the fitted curve.

Sequence of UniProt Q96KQ7 (Q96KQ7 whole entry, looked up): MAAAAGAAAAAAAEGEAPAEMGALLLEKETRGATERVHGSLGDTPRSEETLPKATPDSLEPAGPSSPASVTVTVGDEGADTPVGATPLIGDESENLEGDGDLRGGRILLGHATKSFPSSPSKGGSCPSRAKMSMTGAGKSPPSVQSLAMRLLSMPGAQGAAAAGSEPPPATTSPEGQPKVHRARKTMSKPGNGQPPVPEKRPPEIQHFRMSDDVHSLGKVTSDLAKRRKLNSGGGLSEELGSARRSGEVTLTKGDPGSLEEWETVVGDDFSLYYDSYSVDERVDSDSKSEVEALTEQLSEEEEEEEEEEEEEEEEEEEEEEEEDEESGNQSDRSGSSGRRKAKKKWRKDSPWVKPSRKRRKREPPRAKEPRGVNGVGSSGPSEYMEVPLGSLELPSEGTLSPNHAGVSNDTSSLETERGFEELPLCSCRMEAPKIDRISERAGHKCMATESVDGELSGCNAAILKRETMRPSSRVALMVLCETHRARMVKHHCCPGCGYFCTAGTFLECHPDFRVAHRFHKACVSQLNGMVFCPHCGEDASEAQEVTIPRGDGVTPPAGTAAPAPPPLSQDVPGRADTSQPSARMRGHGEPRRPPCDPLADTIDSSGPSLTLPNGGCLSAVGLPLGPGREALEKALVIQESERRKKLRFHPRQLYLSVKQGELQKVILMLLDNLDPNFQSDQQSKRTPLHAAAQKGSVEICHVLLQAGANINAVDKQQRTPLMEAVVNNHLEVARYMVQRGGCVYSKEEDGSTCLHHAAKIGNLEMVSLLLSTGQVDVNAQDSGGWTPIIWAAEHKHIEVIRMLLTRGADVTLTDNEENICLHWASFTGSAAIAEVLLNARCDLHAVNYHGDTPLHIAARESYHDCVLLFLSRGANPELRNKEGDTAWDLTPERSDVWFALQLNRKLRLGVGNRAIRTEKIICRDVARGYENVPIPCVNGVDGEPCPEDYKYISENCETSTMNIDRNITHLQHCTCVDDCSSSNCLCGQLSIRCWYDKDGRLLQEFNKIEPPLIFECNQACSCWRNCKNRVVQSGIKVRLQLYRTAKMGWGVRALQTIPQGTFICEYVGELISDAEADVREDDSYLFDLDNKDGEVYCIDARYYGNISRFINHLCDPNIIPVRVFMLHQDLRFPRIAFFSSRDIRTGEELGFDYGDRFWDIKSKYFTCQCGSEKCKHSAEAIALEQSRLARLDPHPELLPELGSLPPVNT

Structure (SMILES)	Potency	activity, negative = inhibition
C=CCSc1nnc(CSc2nc3sc4c(c3c(=O)[nH]2)CCCC4)n1-c1ccccc1	inconclusive: 28.2 µM [inhibitor, single point]	–
CCc1ccccc1NC(=O)C1C2C=CC(O2)C1C(=O)O (centres undefined)	active: 35.5 µM	–
Cc1cc(NS(=O)(=O)c2ccc(NC(=O)c3ccc(Cl)cc3Cl)cc2)no1	inactive	–
Cc1[nH]n(C(N)=S)c(=O)c1N=Nc1ccc(Cl)cc1Cl	active: 44.7 µM	–
CCCC(NC(=S)NCC1CCCO1)C12CC3CC(CC(C3)C1)C2 (centres undefined)	active: 12.6 µM	–
Cc1ccc(NS(=O)(=O)c2ccc(C(=O)N3CCN(S(=O)(=O)c4ccccc4)CC3)cc2)cc1	inactive	–
CCOC(=O)C1CCN(CCC(=O)Nc2ccccc2OC)CC1	inconclusive: 12.6 µM [inhibitor, partial curve]	–
COc1ccc(NC(=S)N2CCN(Cc3ccco3)CC2)c(OC)c1	inactive	–
S=c1[nH]nc(-c2ccc(Cl)cc2Cl)n1-c1ccccc1	active: 6.31 µM	–
COc1ccc(OC)c(C2CC(=O)Nc3c2c(=O)[nH]c2nc4ccccc4n32)c1 (centres undefined)	inactive	–
O=C(COC(=O)c1cc2c(s1)CCC2)Nc1ccc(F)cc1	inconclusive: 25.1 µM [inhibitor, single point]	–
C=CCc1cc(C)ccc1OCC(O)CN1CCN(c2ccccc2)CC1 (centres undefined)	inconclusive: 39.8 µM [inhibitor, single point]	–
C=C1C[C@@]23C[C@]1(O)CC[C@@H]2[C@]12C=C[C@@H](O)[C@](C)(C(=O)O1)[C@H]2[C@H]3C(=O)O	inactive	–
COc1ccc2ccccc2c1/C=N/n1cnnc1	inconclusive: 79.4 µM [inhibitor, single point]	–
Nc1nc(CN2CCN(c3ccccc3)CC2)nc(Nc2ccc(Cl)cc2)n1	–	inconclusive: -89% [inhibitor] [at 102 µM]
Cn1cc(Br)c(C(=O)NNC(=O)Nc2ccccc2C(F)(F)F)n1	inactive	–
CCC(C)N(CC(=O)NCc1ccc(OC)cc1)C(=O)c1csnn1 (centres undefined)	inconclusive: 89.1 µM [inhibitor, partial curve, poor fit]	–
Cn1c(=O)c2c(nc(SCC(=O)O)n2Cc2cccc(C(F)(F)F)c2)n(C)c1=O	active: 14.1 µM	–
CCCCSc1nnc([C@H](C)NC(=O)OC(C)(C)C)o1	inconclusive: 0.178 µM [inhibitor, full curve, poor fit]	–
CC(C)CSC1=NSC2=NC(=O)/C(=C\c3coc4ccccc4c3=O)C(=N)N12	active: 79.4 µM	–
CCn1c(SCC(=O)N(C(C)C)C(C)C)nnc1-c1cc2ccccc2cc1O	inconclusive: 1.78 µM [inhibitor, full curve, poor fit]	–
NCc1ccccc1CC(=O)N[C@@H]1C(=O)N2C(C(=O)O)=C(CSc3nnnn3CC(=O)O)CS[C@@H]12	inactive	–
CC1=CSC2=NC(=O)/C(=C/c3cccc(OC(=O)c4ccco4)c3)C(=N)N12	inconclusive: 39.8 µM [inhibitor, single point]	–
Cc1ccc(CNC(=O)CNC(=O)c2ccc(Br)o2)cc1	inactive	–
Cc1ccc(Cl)cc1NC(=O)Cn1c(=O)n(C(C)C)c(=O)c2oc3ccccc3c21	inactive	–

Structure (SMILES)	Potency	activity, negative = inhibition
O=C1c2ccccc2C(=O)N1CCN1CCc2ccccc21	–	inconclusive: -79% [inhibitor]
COc1ccc(S(=O)(=O)N(C)CC(=O)NCCCN2CCOCC2)cc1Cl	inactive	–
Cc1cccc(Nc2nnc(-c3ccc(C)c(S(=O)(=O)N4CCN(C)CC4)c3)c3ccccc23)c1	active: 17.8 µM	–
COc1ccc(N(CC(=O)Nc2ccccc2OC)S(=O)(=O)c2ccc(OC)c(OC)c2)cc1	inactive	–
CCS(=O)(=O)N1CCN(C(=O)CC(C)C)CC1	inactive	–
CSc1nsc(SC)c1NC(=O)N1CCCCC1	active: 44.7 µM	–
CCCCc1nc2ccc(S(=O)(=O)O)cc2[nH]1	inconclusive: 44.7 µM [inhibitor, partial curve]	–
O=C(CN(c1ccc(Cl)cc1)S(=O)(=O)c1ccc(Cl)c([N+](=O)[O-])c1)NCCc1ccccc1	active: 50.1 µM	–
Cc1cccc(NC(=S)N2CCCCCC2)c1	inactive	–
CCCC1=Nc2cc(C(=O)NCCN3CCOCC3)ccc2Sc2ccccc21	inconclusive: 70.8 µM [inhibitor, partial curve, poor fit]	–
Cc1ccc(-c2cc3c(N=O)c4ccccc4c-3n[nH]2)cc1	inconclusive: 89.1 µM [inhibitor, single point]	–
Cc1cc(NC(=O)CN2C(=O)NC3(CCCCC3)C2=O)ccc1N1CCCC1	active: 8.91 µM	–
Cc1ccc(-n2nc(-c3ccccc3)c3cnc4cc5c(cc4c32)OCO5)cc1C	inactive	–
CCCCc1ccc(N2C(=O)[C@@H]3C(CC(N)=O)NC4(C(=O)Nc5ccc(F)cc54)[C@@H]3C2=O)cc1 (some centres undefined)	active: 39.8 µM	–
COc1ccc(-c2ccc(CCC(=O)O)n2NC(=O)c2ccc(C(C)(C)C)cc2)cc1	inconclusive: 56.2 µM [inhibitor, partial curve, poor fit]	–
CCOC(=O)C1=C(C)NC(=O)NC1c1ccc(OCC(=O)OC)c(OC)c1 (centres undefined)	inconclusive: 89.1 µM [inhibitor, partial curve, poor fit]	–
Cc1cc(C)n(-c2nc(C)c(C)c(=O)n2CC(=O)Nc2cccc([N+](=O)[O-])c2)n1	active: 6.31 µM	–
CC(C)(C)Sc1ccc(N)nc1	active: 50.1 µM	–
COc1ccc(N2CCN(C(CNC(=O)c3ccco3)c3cccnc3)CC2)cc1 (centres undefined)	–	inactive: 12.2% [at 2.33 µM]
Cc1ccc(NC(=O)c2ccc3snnc3c2)cc1C	inactive	–
COc1ccccc1NC(=O)C1CCCN(c2ncnc3onc(-c4ccc(F)cc4)c23)C1 (centres undefined)	inactive	–
Cc1cc2nc(CCN(C(=S)NCC3CCCO3)C3CCCC3)[nH]c2cc1C (centres undefined)	inconclusive: 50.1 µM [inhibitor, partial curve, poor fit]	–
CCOc1ccc(S(=O)(=O)N2CCC(c3ccncc3)CC2)cc1	inconclusive: 39.8 µM [inhibitor, partial curve, poor fit]	–
Cc1ccc(C(=O)OCC(=O)c2ccc(CC(=O)N3CCOCC3)s2)cc1C	inconclusive: 31.6 µM [inhibitor, single point]	–
COc1ccc(S(=O)(=O)NCC(c2ccc(N(C)C)cc2)N2CCc3ccccc32)cc1F (centres undefined)	–	inactive: -22.7% [at 12.7 µM]

Structure (SMILES)	Potency	activity, negative = inhibition
COc1ccc(/C=C2\CCCC3C2=NC(=S)NC3c2ccc(OC)cc2)cc1 (centres undefined)	inconclusive: 17.8 µM [inhibitor, partial curve, poor fit]	–
COc1cc(O)cc2cc3c(c(O)c12)C(=O)CC(C)(O)O3 (centres undefined)	–	inconclusive: -72.4% [inhibitor]
CCN(CC)C(=O)Cn1c(=O)n(CCc2ccccc2)c(=O)c2ccccc21	inactive	–
COc1ccccc1N1CCN(Cc2nc(N)nc(Nc3ccc(C)c(Cl)c3)n2)CC1	–	inconclusive: -79.2% [inhibitor]
O=C(COC(=O)c1cccs1)NCCCc1ccccc1	inactive	–
O=C(Nc1ccc(N2CCCCC2)cc1)c1ccc(F)cc1	inconclusive: 3.16 µM [inhibitor, single point]	–
CCCNC(=O)N1[C@H](c2cccs2)[C@@H](C)C(=O)[C@@H](C)[C@@H]1c1cccs1	inconclusive: 39.8 µM [inhibitor, partial curve, poor fit]	–
CCOC(=O)C1(CCOC)CCN(Cc2cnc(-c3cccc(C)c3)nc2)CC1	active: 44.7 µM	–
CCOC(=O)Cc1c(C(=O)OCC)nnc2c(-c3ccccc3)c(C)nn12	inconclusive: 28.2 µM [inhibitor, partial curve, poor fit]	–
CCOC(=O)c1cccc(NC(=O)N2CC=C(c3c[nH]c4ccccc34)CC2)c1	inactive	–
COC(=O)c1cc(NC(=O)Cn2c(=O)oc3ccccc32)cc(C(=O)OC)c1	inconclusive: 100 µM [inhibitor, single point]	–
CCOc1ccc2nc(/N=C/c3c(C)[nH]n(-c4ccc(C)cc4)c3=O)sc2c1	inconclusive: 39.8 µM [inhibitor, single point]	–
COc1ccc(OC)c(NC(=O)N2CC3CCCN3c3ccccc32)c1 (centres undefined)	active: 17.8 µM	–
O=C(O)c1cc(-c2ccc(-c3ccc(F)cc3)o2)nc2ccccc12	inactive	–
COCCNCC#CCOc1ccc(OC)cc1	inconclusive: 0.891 µM [inhibitor, single point]	–
Fc1ccc(C2CC(c3ccccc3)Nc3ncnn32)cc1 (centres undefined)	inconclusive: 89.1 µM [inhibitor, single point]	–
Cc1ccc(S(=O)(=O)O)cc1C	inactive	–
Cc1ccc(-c2nnc3c4ccccc4c(C)nn23)cc1S(=O)(=O)N1CCN(CCO)CC1	inconclusive: 6.31 µM [inhibitor, partial curve, poor fit]	–
Cc1cc([N+](=O)[O-])cnc1NC(C)c1ccccc1 (centres undefined)	–	inconclusive: -72.3% [inhibitor] [at 2.33 µM]
CCOC(=O)c1cccc(NC(=O)CN(c2ccc(C)cc2)S(=O)(=O)c2c(C)noc2C)c1	inconclusive: 5.62 µM [inhibitor, partial curve, poor fit]	–
COc1ccccc1-c1n[nH]c(=S)o1	inconclusive: 3.16 µM [inhibitor, partial curve, poor fit]	–
CN(C)S(=O)(=O)c1cc(NC(=O)CN2CCN(c3ccccc3F)CC2)ccc1Cl	inactive	–
O=C(CN1CCCc2ccccc21)N/N=C/c1ccccc1O	inactive	–
COC(=O)CC(=O)CSc1nc2cc(C(=O)NCC(C)C)ccc2c(=O)n1CCc1ccccc1	inactive	–
